Consider 77 variants from a collection of fitness landscapes (doi:10.1016/j.celrep.2020.107928).

Whole data set: some 81,000 sequences, median “one-hybrid fitness for binding NBS DNA” near -0.1, cut for the highest 2% near 0.36. Some of the results follow.

B1: Caulobacter ParB omega fusion; a variant is named by its letters at X, in order, B8GW30 (parent)
chain: MESVVVGEPGMSEGRRGLGRGLSALLGEVDAAPAQAPGEQLGGSREAPIEILQRNPDQPRRTFREEDLEDLSNSIREKGVLQPILVRPSPDTAGEYQIVAGERAWRAAQRAGLKTVPIMVRELDDLAVLEIGIIENVQRADLNVLEEALSYKVLMEKFERTQENIAQTIGKSXSHVANXMRLLXLPDEVQSYLVSGELTAXHARAIAAAADPVALAKQIIEGGLSVRETEALARKAPNLSAGKSKGGRPPRVKDTDTQALESDLSSVLGLDVSIDHRGSTGTLTITYATLEQLDDLCNRLTRGI

Variants of B1 are the subject of the test. In words: one-hybrid fitness for binding NBS DNA (the Noc-binding site; scaled: cognate 1, non-cognate 0); higher = stronger binding. Conditions: with NBS DNA site. In a few lines:
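Values were rescaled so that cognate is 1 and non-cognate is 0. Each is a fitness, the log change in a variant's read ratio to wild type from Illumina reads of plasmids before and after selection, with three replicate libraries pooled and variants under 10 reads dropped. Selection of the Caulobacter ParB libraries, four specificity codons randomised, used E. coli USO with a HIS3 reporter, site 19 bp from the promoter, on M9-minus-histidine with 0.1 mM IPTG and 5 mM 3-AT for 48 hours at 37°C.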
Regarding AILL, the “one-hybrid fitness for binding NBS DNA” value is no more than 0.2.

With LPQV, the “one-hybrid fitness for binding NBS DNA” value was no more than 0.2.

Regarding FLNY, the “one-hybrid fitness for binding NBS DNA” value was no more than 0.2.

As to YLSV, the “one-hybrid fitness for binding NBS DNA” value is no more than 0.2.

Turning to EYGW, the “one-hybrid fitness for binding NBS DNA” value is no more than 0.2.

Regarding QPQA, the “one-hybrid fitness for binding NBS DNA” value was no more than 0.2.

For the variant LTEW, the “one-hybrid fitness for binding NBS DNA” value was no more than 0.2.

As to QVVV, the “one-hybrid fitness for binding NBS DNA” value was no more than 0.2.

On to IDPS, for which the “one-hybrid fitness for binding NBS DNA” value is no more than 0.2.

As for DSGM, the “one-hybrid fitness for binding NBS DNA” value was no more than 0.2.

For QWCC, the “one-hybrid fitness for binding NBS DNA” value was no more than 0.2.

On to REKR, for which the “one-hybrid fitness for binding NBS DNA” value worked out at 0.228.

As to QRQD, the “one-hybrid fitness for binding NBS DNA” value is 0.228.

For VHAT, the “one-hybrid fitness for binding NBS DNA” value was no more than 0.2.

As to YVYT, the “one-hybrid fitness for binding NBS DNA” value was no more than 0.2.

Regarding VGSW, the “one-hybrid fitness for binding NBS DNA” value was no more than 0.2.

Consider RVCF, for which the “one-hybrid fitness for binding NBS DNA” value is no more than 0.2.

Regarding AYKL, the “one-hybrid fitness for binding NBS DNA” value was no more than 0.2.

For the variant PEMR, the “one-hybrid fitness for binding NBS DNA” value is no more than 0.2.

In the case of MERK, the “one-hybrid fitness for binding NBS DNA” value is no more than 0.2.

For the variant RHFF, the “one-hybrid fitness for binding NBS DNA” value is no more than 0.2.

Consider YQPY, for which the “one-hybrid fitness for binding NBS DNA” value is no more than 0.2.

For YNSA, the “one-hybrid fitness for binding NBS DNA” value is no more than 0.2.

Consider WTIR, for which the “one-hybrid fitness for binding NBS DNA” value was no more than 0.2.

For the variant ENMR, the “one-hybrid fitness for binding NBS DNA” value is no more than 0.2.

Take GTYL: the “one-hybrid fitness for binding NBS DNA” value is no more than 0.2.

With RVKF, the “one-hybrid fitness for binding NBS DNA” value is no more than 0.2.

In the case of QEWG, the “one-hybrid fitness for binding NBS DNA” value is no more than 0.2.

Turning to DAFT, the “one-hybrid fitness for binding NBS DNA” value was no more than 0.2.

As to MGGS, the “one-hybrid fitness for binding NBS DNA” value was no more than 0.2.

Consider VYEG, for which the “one-hybrid fitness for binding NBS DNA” value is no more than 0.2.

Take PCPC: the “one-hybrid fitness for binding NBS DNA” value was no more than 0.2.

For WDLT, the “one-hybrid fitness for binding NBS DNA” value is no more than 0.2.

With ICNS, the “one-hybrid fitness for binding NBS DNA” value was no more than 0.2.

In the case of EVLG, the “one-hybrid fitness for binding NBS DNA” value is no more than 0.2.

Take DTDS: the “one-hybrid fitness for binding NBS DNA” value is no more than 0.2.

Take CFRR: the “one-hybrid fitness for binding NBS DNA” value is no more than 0.2.

With SDNG, the “one-hybrid fitness for binding NBS DNA” value was no more than 0.2.

In the case of EKIR, the “one-hybrid fitness for binding NBS DNA” value was no more than 0.2.

Consider THER, for which the “one-hybrid fitness for binding NBS DNA” value was no more than 0.2.

With ECMG, the “one-hybrid fitness for binding NBS DNA” value was no more than 0.2.

On to WAES, for which the “one-hybrid fitness for binding NBS DNA” value is no more than 0.2.

In the case of SDQF, the “one-hybrid fitness for binding NBS DNA” value was no more than 0.2.

Take PAVT: the “one-hybrid fitness for binding NBS DNA” value is no more than 0.2.

As to QNHF, the “one-hybrid fitness for binding NBS DNA” value was no more than 0.2.

WMHM: the “one-hybrid fitness for binding NBS DNA” value was no more than 0.2.

IANA: the “one-hybrid fitness for binding NBS DNA” value is no more than 0.2.

For the variant NYIS, the “one-hybrid fitness for binding NBS DNA” value is no more than 0.2.

For the variant LPNS, the “one-hybrid fitness for binding NBS DNA” value was no more than 0.2.

Turning to HGVG, the “one-hybrid fitness for binding NBS DNA” value was no more than 0.2.

On to MRAR, for which the “one-hybrid fitness for binding NBS DNA” value is no more than 0.2.

On to RFSL, for which the “one-hybrid fitness for binding NBS DNA” value is no more than 0.2.

With LEYT, the “one-hybrid fitness for binding NBS DNA” value is no more than 0.2.

On to TPRL, for which the “one-hybrid fitness for binding NBS DNA” value was no more than 0.2.

MLPY: the “one-hybrid fitness for binding NBS DNA” value was no more than 0.2.

ISIR: the “one-hybrid fitness for binding NBS DNA” value was no more than 0.2.

FLCS: the “one-hybrid fitness for binding NBS DNA” value was no more than 0.2.

As for RKFV, the “one-hybrid fitness for binding NBS DNA” value was no more than 0.2.

Consider SYPT, for which the “one-hybrid fitness for binding NBS DNA” value was no more than 0.2.

RAMC: the “one-hybrid fitness for binding NBS DNA” value was no more than 0.2.

As for SDRM, the “one-hybrid fitness for binding NBS DNA” value is no more than 0.2.

For the variant SNIY, the “one-hybrid fitness for binding NBS DNA” value was no more than 0.2.

As for KTDT, the “one-hybrid fitness for binding NBS DNA” value was no more than 0.2.

On to SAFR, for which the “one-hybrid fitness for binding NBS DNA” value was no more than 0.2.

As for PTVV, the “one-hybrid fitness for binding NBS DNA” value was no more than 0.2.

In the case of RHGS, the “one-hybrid fitness for binding NBS DNA” value was found to be 0.368.

PRED: the “one-hybrid fitness for binding NBS DNA” value is no more than 0.2.

Turning to ADHC, the “one-hybrid fitness for binding NBS DNA” value is no more than 0.2.

In the case of AVLP, the “one-hybrid fitness for binding NBS DNA” value was no more than 0.2.

Turning to MHAV, the “one-hybrid fitness for binding NBS DNA” value is no more than 0.2.

As for QDWR, the “one-hybrid fitness for binding NBS DNA” value is no more than 0.2.

As to KTRY, the “one-hybrid fitness for binding NBS DNA” value is no more than 0.2.

On to AFYS, for which the “one-hybrid fitness for binding NBS DNA” value was no more than 0.2.

For the variant RESG, the “one-hybrid fitness for binding NBS DNA” value was no more than 0.2.

In the case of YDVR, the “one-hybrid fitness for binding NBS DNA” value was no more than 0.2.

For TKYA, the “one-hybrid fitness for binding NBS DNA” value was no more than 0.2.

Regarding QTNP, the “one-hybrid fitness for binding NBS DNA” value was no more than 0.2.
